According to the BET-seq Pho4 binding data (Le et al. 2018):
The list shows a part of the results. These are noisy estimates, calculated here from bound and input reads.

Each sequence was assayed against T1, Pho4 (S. cerevisiae) (UniProt P07270) (assay: relative binding free energy (BET-seq); higher = weaker binding). Conditions: reference: library average.
T1 sequence: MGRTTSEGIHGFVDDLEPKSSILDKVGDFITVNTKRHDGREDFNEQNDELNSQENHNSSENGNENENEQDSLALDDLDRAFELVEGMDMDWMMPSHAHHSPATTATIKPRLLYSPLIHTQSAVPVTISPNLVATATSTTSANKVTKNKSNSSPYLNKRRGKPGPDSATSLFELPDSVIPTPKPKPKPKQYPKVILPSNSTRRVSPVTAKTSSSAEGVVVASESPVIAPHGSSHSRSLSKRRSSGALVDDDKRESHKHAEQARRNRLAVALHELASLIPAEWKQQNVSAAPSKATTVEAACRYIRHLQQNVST

Sequence | relative binding free energy [kcal/mol]
CTACTCACGTGGAGGT | 0.27
ATTGTCACGTGAGGCA | 0.25
TTGTGCACGTGAAATG | 0.25
TAGTGCACGTGAAATT | 0.27
ATGAGCACGTGGGACG | -0.24
TACATCACGTGTTGTT | 0.21
GGAGGCACGTGTACGG | -0.12
GGCAGCACGTGTAGTT | 0.05
AGTGTCACGTGGCAGG | -0.15
TATTGCACGTGGATTC | -0.02
AGATGCACGTGGAGGG | -0.07
TCGTTCACGTGGGCTT | 0.05
TCGAGCACGTGGAGTT | -0.01
GTGCACACGTGTAGGT | 0.07
GAAGACACGTGTGTTA | 0.08
ATTTGCACGTGATGGA | 0.13
GTTGTCACGTGTCTGC | 0.19
ATTGGCACGTGCCGTG | -0.19
TTTAGCACGTGATTTA | 0.12
ATTTCCACGTGGTTGG | 0.09
TGGGTCACGTGTGTAG | 0.14
ATTTACACGTGGGCTG | -0.05
TTATGCACGTGCCTTG | 0

Sequence | relative binding free energy [kcal/mol]
GGTCTCACGTGGTATA | 0.17
GGCAGCACGTGGTGGC | -0.08
TATTTCACGTGATAAG | 0.38
TAGCGCACGTGTAGTG | -0.2
CGGGACACGTGTAGGC | 0.15
GAATGCACGTGGGCTG | -0.13
CTTAACACGTGTTTGG | -0.19
ATACGCACGTGATGTT | -0.03
TAATACACGTGAGTTA | 0.32
CGTTTCACGTGAACGT | 0.35
TGGGGCACGTGGTATA | -0.04
GTGGCCACGTGGCGTA | -0.21
GTAGGCACGTGCACGG | -0.17
TGAGGCACGTGAGTGA | 0.15
TATATCACGTGGAGTA | 0.1
AAGAGCACGTGTTAAG | -0.01
AGTAGCACGTGCAGTG | -0.03
CTGTTCACGTGGTGGT | 0.27
GTAGGCACGTGGAGGC | -0.09
TAAGACACGTGTATGT | 0
TGAGTCACGTGGGAAC | 0.09
GATTCCACGTGAGGTG | 0.48
ATTGGCACGTGATTTG | 0.12

Sequence | relative binding free energy [kcal/mol]
GTTATCACGTGGATCA | 0.27
CTATACACGTGTTGTG | -0.1
ATAGGCACGTGAATGG | 0.05
TTTGACACGTGTGAAG | 0.04
CTGGACACGTGGTTAG | 0.11
TGTATCACGTGGTCGC | 0.02
TGACTCACGTGGTTTG | 0.04
TTTTCCACGTGAGTGT | 0.18
TGTGCCACGTGCGGGT | -0.28
ATTGACACGTGGCTTG | -0.09
AATTTCACGTGGGTAC | 0.14
ACTATCACGTGGGTTA | -0.01
TTCGTCACGTGTTGTC | 0.19
GTTAACACGTGATTAG | 0.18
TTTTCCACGTGTAGTA | 0.01
GCATGCACGTGGGGTG | -0.22
TGTTACACGTGTGCGT | 0.14
GGGTACACGTGGTAGA | -0.03
GTTGTCACGTGCTCAG | 0.13
AGGGGCACGTGTTGGC | -0.01
ATATTCACGTGTAGAG | 0.18
CGACGCACGTGTGTGG | -0.07
CTGTTCACGTGGAGCG | 0.37

Sequence | relative binding free energy [kcal/mol]
ACATTCACGTGGTGGG | 0.18
TGTTGCACGTGTTCTG | -0.04
GGGTTCACGTGCAGAG | 0.26
GTCGACACGTGCGGGG | -0.01
GGTGCCACGTGGTGTA | -0.07
TTGGACACGTGGCGGT | 0
CGGGTCACGTGGTAGG | 0.11
TTTCTCACGTGTCGGT | 0.12
GGTGGCACGTGCTGGG | -0.04
GTATGCACGTGGAAAG | 0.06
TGGGCCACGTGTTTAG | -0.15
TAATGCACGTGGCGGT | -0.15
TTTCTCACGTGTAAGG | 0.17
ATACTCACGTGGTGAG | 0.22
GGGTTCACGTGGTTAC | 0.41
GCGGGCACGTGGGTCT | -0.24
GCTTGCACGTGGTTGG | 0.04
CATTTCACGTGTGGCA | 0.27
ATTGGCACGTGGCAGT | -0.13
TCCGTCACGTGTTGTG | 0.04
AGTTCCACGTGGGTTA | -0.12
TGCTGCACGTGAATTT | 0.37
GGGAGCACGTGGGTCT | -0.15

Sequence | relative binding free energy [kcal/mol]
AAGATCACGTGGGTTT | 0.09
CGCGACACGTGGGCGG | -0.06
TGGTCCACGTGGGGTG | -0.11
ATTAGCACGTGTGCGG | -0.12
AGCAGCACGTGTTGAG | -0.13
CGTTCCACGTGGGTGT | -0.11
CATCTCACGTGAGGGT | 0.33
GTTAGCACGTGCTGGG | -0.11
GTGGACACGTGAAGTA | 0.2
AAGGTCACGTGGCCGG | -0.11
AGTTTCACGTGGTATT | 0.24
AAAGCCACGTGAGTGG | 0.33
AAGATCACGTGATTGG | 0.35
GTTTTCACGTGAAGCT | 0.43
TGTAACACGTGCTTTG | -0.18
CGTGGCACGTGGCTGT | -0.19
ATATCCACGTGTATGG | -0.03
TTGGCCACGTGGGGAA | -0.27
AAAGTCACGTGTAAGG | 0.02
GGGAACACGTGATCGG | 0.21
GGAGGCACGTGTTAGA | -0.1
GTTAACACGTGGGAGA | 0.05
ATAAACACGTGTGGAG | -0.01
